# The campaign covered roughly 310,000 compounds. About 14,000 (4.5%) showed an effect of 50% or more. The effect is printed as a negative number. This is one part of the list.
# Target: human ether-à-go-go-related gene (hERG) potassium channel (human, UniProt Q12809)
# Test: primary screen, population patch clamp on CHO cells stably expressing hERG
# 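Note: peak tail current of the secondary pulse compared with the same well before compound.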
# Chain of human ether-à-go-go-related gene (hERG) potassium channel (Q12809 whole entry, looked up): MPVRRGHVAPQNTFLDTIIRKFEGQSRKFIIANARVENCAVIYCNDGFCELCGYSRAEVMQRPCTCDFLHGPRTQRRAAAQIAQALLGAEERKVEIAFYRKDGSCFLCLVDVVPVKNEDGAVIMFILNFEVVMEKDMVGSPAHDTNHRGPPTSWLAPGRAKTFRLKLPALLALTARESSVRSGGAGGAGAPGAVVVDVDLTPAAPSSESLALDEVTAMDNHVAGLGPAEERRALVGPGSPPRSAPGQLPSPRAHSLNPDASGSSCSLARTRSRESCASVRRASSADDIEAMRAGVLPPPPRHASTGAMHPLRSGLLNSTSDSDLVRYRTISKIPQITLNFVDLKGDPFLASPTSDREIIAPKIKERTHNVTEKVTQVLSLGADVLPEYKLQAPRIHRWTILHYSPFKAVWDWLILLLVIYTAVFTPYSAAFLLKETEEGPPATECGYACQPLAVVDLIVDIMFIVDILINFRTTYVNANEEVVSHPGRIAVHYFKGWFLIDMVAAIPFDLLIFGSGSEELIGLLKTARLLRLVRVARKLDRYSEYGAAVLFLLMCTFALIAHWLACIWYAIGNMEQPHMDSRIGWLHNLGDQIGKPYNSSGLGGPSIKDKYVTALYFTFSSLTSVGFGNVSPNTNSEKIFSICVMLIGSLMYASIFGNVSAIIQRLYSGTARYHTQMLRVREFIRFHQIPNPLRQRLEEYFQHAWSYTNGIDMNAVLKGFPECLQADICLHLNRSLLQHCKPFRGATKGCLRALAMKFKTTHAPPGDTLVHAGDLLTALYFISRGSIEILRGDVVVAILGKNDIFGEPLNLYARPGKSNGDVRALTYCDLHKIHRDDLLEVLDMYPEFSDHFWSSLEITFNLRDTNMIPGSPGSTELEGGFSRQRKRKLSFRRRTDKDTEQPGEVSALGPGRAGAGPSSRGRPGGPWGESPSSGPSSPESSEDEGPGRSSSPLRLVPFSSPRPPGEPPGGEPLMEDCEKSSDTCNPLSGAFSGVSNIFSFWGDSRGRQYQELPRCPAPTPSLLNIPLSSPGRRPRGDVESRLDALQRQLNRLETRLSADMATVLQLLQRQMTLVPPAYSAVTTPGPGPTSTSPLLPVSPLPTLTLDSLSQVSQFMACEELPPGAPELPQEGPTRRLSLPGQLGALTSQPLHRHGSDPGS
row,SMILES,"hERG current change (%, negative = inhibition) at 10uM [%]"
1,Cn1c(SCC(=O)Nc2ccccc2F)nnc1C1CCCCC1,0.775
2,COC(=O)C1CSc2[nH]c(=O)sc2C1c1ccccc1 (stereo not shown),-16.3
3,CC(=O)c1sc2nc(CSc3nnnn3-c3ccccc3)[nH]c(=O)c2c1C,-4.04
4,COCCN(C(=O)CSc1nc2ccc(C)cc2[nH]1)c1c(N)n(Cc2ccccc2)c(=O)[nH]c1=O,16.8
5,Cc1cc(C)nc(NS(=O)(=O)c2ccc(NC(=S)NC(=O)CC(C)C)cc2)n1,-8.57
6,CCn1c2ccccc2c2cc(NC(=O)c3ccc(=O)oc3)ccc21,3.63
7,Cc1c(Cl)cccc1N(CC(=O)N1CCCCCC1)S(C)(=O)=O,-5.82
8,O=C(COC(=O)c1ccc(S(=O)(=O)NCc2ccco2)cc1)Nc1ccc(Cl)cn1,18.8
9,Cc1cc(C(=O)Cn2nc(C(=O)O)c3ccccc3c2=O)c(C)n1-c1ccc(F)cc1,-0.742
10,Cc1ccc(NS(=O)(=O)c2cccc(C(=O)NNC(=O)c3cccn3C)c2)c(C)c1,-8.9
11,CCN(C(=O)C1CCCN(c2ncnc3c2nc2n3CCCCC2)C1)c1cccc(Cl)c1 (stereo not shown),-62.5
12,Cc1cc(-c2ccccc2)c2c(=O)[nH][nH]c2n1,13.2
13,O=C(O)CCCC(=O)Nc1ccc(Cl)c(Cl)c1,20.9
14,COc1ccc(Cn2nnc(C(=O)Nc3ccc4c(c3)OCCO4)c2N)cc1Br,-0.0485
15,CC1(C)Cc2nc3sc(C(=O)NCCO)c(N)c3cc2CO1,-34.2
16,CCOC(=O)C(C)Oc1cccc2c(=O)n(CC(=O)NCc3ccccc3)ccc12 (stereo not shown),4.63
17,Cc1ccccc1Cn1nc(C)c(NC(=O)c2cc(-c3cccs3)on2)c1C,-1.72
18,CCOC(=O)c1c(NC(=O)CC(C)C)sc(C(C)=O)c1C,2.17
19,COc1ccc(Nc2nc(-c3ccccc3)c3ccccc3n2)cc1,-5.22
20,CCOC(=O)C(NCc1ccccc1OC)(NC(C)=O)C(F)(F)F (stereo not shown),23
21,O=C(C1CCCN(S(=O)(=O)c2ccc(F)cc2)C1)N(Cc1cccs1)C1CC1 (stereo not shown),-78.2
22,CC(=O)c1ccc(N=Cc2c(O)n(-c3cc(Cl)ccc3N3CCOCC3)c(=O)c3ccccc23)cc1,5.32
23,C/C(=N\O)C1(C)N(O)C(C)(C)C(c2ccc(Br)cc2)=[N+]1[O-] (stereo not shown),3.24

row,SMILES,"hERG current change (%, negative = inhibition) at 10uM [%]"
1,CCCCNC(=O)Oc1cccc(N2CCCC2=O)c1,4.02
2,O=C(Nc1ccc2[nH]ccc2c1)c1ccc(F)cc1,6.55
3,COC(=O)c1ccc(N(CC(=O)NC2CCCC2)C(=O)CNC(=O)c2cccs2)cc1,-7.76
4,Cc1c(-c2ccc(F)cc2)nc(N)c(C#N)c1-c1cccs1,1.48
5,COc1ccc(CCC(=O)NNC(=O)Nc2ccc(OC)c(OC)c2)cc1,3.33
6,COc1ccccc1/C=C/C(=O)NC(=S)Nc1ccccn1,20.6
7,CCOc1cc(CNn2nnnc2N)ccc1OCC(=O)NC(C)(C)C,1.14
8,CCOC(=O)c1[nH]c2ccccc2c1NC(=O)CC(C)(C)C,-17.2
9,COc1ccc(CNC(=O)[C@H](C)NC(=O)C2CC(=O)N(c3ccc4c(c3)OCO4)C2)cc1 (stereo partly shown),10.1
10,O=C1CN(C(=O)COC(=O)CCCOc2ccccc2)c2ccccc2N1,-9.99
11,CCCc1cc(=O)[nH]c(SCCOc2ccc(Cl)cc2)n1,5.26
12,CC(C)CCn1cnc2c(cnn2-c2ccc(Cl)cc2)c1=O,3.53
13,COc1cc2c(cc1OC)CN(c1ccc3ccccc3n1)CC2,13.1
14,Cc1ccc(-c2csc(NC(=O)c3ccc(S(=O)(=O)N4CCc5ccccc54)cc3)n2)cc1,20.1
15,O=C1Nc2ccccc2/C1=C/c1cnc(-c2ccccc2)[nH]1,26.2
16,O=C(CN1C(=O)c2ccccc2S1(=O)=O)NCc1cccnc1,-2.53
17,Cc1ccsc1C=Nc1c(C)n(C)n(-c2ccccc2)c1=O,13.8
18,COc1ccc(CCN(C)CC(O)COc2ccc(C(C)=O)cc2OC)cc1OC (stereo not shown),-21.6
19,CCc1ccc(Cn2nnc(C(=O)Nc3cccc(C)c3)c2N)cc1,9.6
20,O=C(NNC(=O)c1sccc1-n1cccc1)c1cccc(Cl)c1,5.3
21,CCCCN(C(=O)Nc1ccccc1)C1CCS(=O)(=O)C1 (stereo not shown),-11
22,Cc1cccc(Nc2nc(Cl)ncc2F)c1C,0.842
23,Cc1ccc(NC(=O)CCC(=O)c2cccs2)cc1F,2.31

row,SMILES,"hERG current change (%, negative = inhibition) at 10uM [%]"
1,Cn1c(SCC(=O)NC2CCCC2)nnc1-c1cccs1,13.5
2,COc1ccccc1-n1c(O)c(C=Nc2c(C)n(C)n(-c3ccccc3)c2=O)c(=O)[nH]c1=O,3.41
3,Cc1nnc2sc(SCc3ccc(Cl)cc3)nn2c1=O,-14.9
4,CCOC(=O)c1cc(S(=O)(=O)N2CCN(C3CCCCC3)CC2)cn1C,12.7
5,COc1ccc(-c2nc3cccc(C)n3c2NCC2CCCO2)cc1O.Cl (stereo not shown),-5.6
6,CCCN(C(=O)Cc1csc(-c2ccccc2)n1)C1CCS(=O)(=O)C1 (stereo not shown),-2.9
7,CCOC(=O)N1CCC(Nc2c(NCCCOC)c(=O)c2=O)CC1,8.44
8,COc1ccc(C2C(C(C)=O)=C(O)C(=O)N2c2ccc(O)cc2)cc1 (stereo not shown),13.6
9,CCC(C)C(=O)Nc1cc(OC)c(OC)cc1C(=O)O (stereo not shown),-5.85
10,CCCNC(=O)N1CCN(Cc2ccco2)CC1,11.2
11,C=CCn1c(SCCC#N)nnc1-c1ccncc1,-4.28
12,CCCCn1c(=O)c2ccccc2n2c(=S)[nH]nc12,6.17
13,Cn1cccc1Cc1nnc(SCC(=O)Nc2cccc(F)c2)n1CCc1ccccc1,-20.3
14,Cc1ccc(Sc2c([N+](=O)[O-])c(=O)n(C)c3ccccc23)cc1,17.3
15,CN(C)CCOc1ncnc2c1oc1ccccc12,-13.5
16,CC(=O)Nc1cccc(OCC(=O)NC(C)c2ccc3ccccc3c2)c1 (stereo not shown),10.2
17,CCCCN(C(=O)c1ccc(S(=O)(=O)N(C)C)cc1)c1nc2ccccc2s1,11.8
18,Cc1cccc(NC(=O)C2C3C=CC(O3)C2C(=O)O)c1C (stereo not shown),15.8
19,O=C(Nc1cccnc1)c1cc(-c2ccc(F)cc2)on1,10.9
20,Br.O=C(CN1C2=NCCCN2c2ccccc21)c1cccc(Br)c1,-71
21,CCN1CCCC1CNC(=O)C(=O)NCCc1ccc(OC)c(OC)c1 (stereo not shown),-1.49
22,Cc1c(Cl)cccc1NC(=O)CSc1ncnc2c1cnn2CCc1ccccc1,13.9
23,Cc1cc(C)c(NC(=O)CSc2nc3ncc(Br)cc3[nH]2)c(Cl)c1,21

row,SMILES,"hERG current change (%, negative = inhibition) at 10uM [%]"
1,O=S1(=O)C=CC(N2CCOCC2)C1 (stereo not shown),-13.2
2,Cc1cc(C)n2c(Br)c(CN3CC4CC(C3)c3cccc(=O)n3C4)nc2n1 (stereo not shown),0.651
3,COc1ccc(OCCCN2CCc3ccccc3C2)cc1.Cl,-47.5
4,CC(=O)Nc1ccc(S(=O)(=O)NCc2ccc(C)n2C)cc1,22.1
5,CC1(C)CC(=O)C2=C(C1)Nc1ccccc1NC2c1ccc([N+](=O)[O-])cc1 (stereo not shown),-35.6
6,CN1CCN(c2ccc(S(=O)(=O)N3CCCCC3)cc2NC(=O)COc2ccc(F)cc2)CC1,-75.2
7,O=C(O)Cc1sc(Nc2ccc(F)cc2)nc1-c1cccs1,15.3
8,O=S(=O)(Nc1ccccn1)c1ccc(Br)cc1,-2.97
9,Cc1ccc(S(=O)(=O)N2CCC(C(=O)NCc3ccncc3)CC2)cc1,-9.15
10,Cc1nn(C)c(C)c1N=Cc1c(O)ccc2ccccc12,12.9
11,CC1CCCCN1CC(=O)Nc1sccc1C#N (stereo not shown),-13.2
12,CCOC(=O)N1CCN(c2cccc(C)c2C)CC1,-2.36
13,COc1ccccc1CNS(=O)(=O)c1ccc(Cl)s1,-6.4
14,CCN(CC(=O)Nc1c(C(=O)OC)[nH]c2ccccc12)c1ccc2c(c1)OCO2,-17.4
15,COCCNC(=O)/C(C#N)=C/c1ccc(C(=O)O)cc1,47.8
16,Oc1c(Br)cc(Br)c(/C=N/n2c(-c3ccccc3)n[nH]c2=S)c1Br,12.5
17,CCOC(=O)CSc1nc(C)[nH]c1[N+](=O)[O-],-1.45
18,CCCNC(=O)C(=O)NCC1CCCN1CC (stereo not shown),10.1
19,Cc1ccc(C(=O)N/C(=C\c2cn(C)c3ccccc23)C(=O)NCCCn2ccnc2)cc1,-7.74
20,CCCCC(=O)Oc1cc(C)[nH]c(=O)c1[N+](=O)[O-],11.9
21,COc1cccc(NC(=O)CN(C)C(=O)c2oc3c(ccc4ccccc43)c2C)c1,-0.74
22,Cc1cc(-c2csc(NC(=O)c3ccc(=O)[nH]c3)n2)c(C)n1Cc1ccccc1,20.4

# Reference: article PMC4336329 (PLoS ONE, 2015)
